Source: patent US12551573B2, “Compositions and methods for the targeting of PCSK9” (Scribe Therapeutics Inc., priority 2022, dated 2026)
Read-outs that look alike come from different tables or passages of the source.

Test system: HBEGF locus
Type: cell-based, human
[1] = repressor domain in dXR, repression of the HBEGF gene, abundance of domain in library after vs before diphtheria toxin selection
[2] = high-throughput screen of dXR repression of the HBEGF gene, change in abundance of each domain in the library before and after diphtheria toxin selection

Row | Molecule | Log2 (fold change) [1] | Log2 (fold change) [2]
1 | DOMAIN_10018 (protein, listed as Octodon degus) LLPAAGCGKDSGTPATEAVTFEDVAVNFSREEWALLDPPQRKLYRDVMWETLRHLAAVGMNSDDRQIEDVYKICRKNLSGA | 3.3372 | 
2 | DOMAIN_9725 (protein, listed as Mus caroli) LQEAVTFNDVAIDFSQEEWEWLNSAQRSLYRTVVLENYRNLVSVGACISKPSLISLLEHGKEPWEVKGQVTGSRVQGGESV | 2.9654 | 
3 | DOMAIN_10091 (protein, listed as Fukomys damarensis) VTFDDVAVNFTMEEWALLDPSQKKLYRDVMWENFRNVTAIGRNWDNQQIEDQYKNYRNNLRKTSADFQSLQKHAMTNPEEK | 2.1679 | 
4 | DOMAIN_10044 (protein, listed as Mus musculus) MNAVTYRDVHVNFTQEEWALLDPSQKKLYKDVMLETYRNLNAIGFNWEAQNIEEHCQSSRRHRRCERSQSAEKPSEYTQRD | 2.826 | 
5 | DOMAIN_9843 (protein, listed as Mus musculus) MDAVTYEDVHVNFSREEWVLLDPSQKSLYKDVMLETYWNLTCIGYKWKDHDNEEYCQNSGRHGRCINCPSAYGKKQCTNLF | 2.3385 | 
6 | DOMAIN_9697 (protein, listed as Octodon degus) VHGSVTFRDVAIDFCQEEWECLGPIQRDLYRDVMLENYSNLIAVGSTISKPDVIALLEQGTEPWMGVRKDRSRWYPGLNSG | 2.7566 | 
7 | DOMAIN_9824 (protein, Heterocephalus glaber) QGSVMFSDVSIIFSQEEWEYLDREQRNLYRNVMMENYSNLVSLAGCFISKPDVITLLEQGKDPWKVVRKGRKRYSDLETSH | 3.1306 | 
8 | DOMAIN_9530 (protein, listed as Mesocricetus auratus) DMGLVSFEDVAVDFTWQEWQELDAAQRTLYRDVMLENYSSLVSLGNCLDKPELISKLEQGLVPWSGAEATEQYQPDVHKWS | 2.7003 | 
9 | DOMAIN_9446 (protein, Marmota monax) AQESVMFSDVSIDFSQEEWECLTDDQRHLYRDVMLENYSNLVSMGHSISKPNVISYLEQGKEPWLVDRGRTRGQWPVLEST | 2.8722 | 
10 | DOMAIN_11386 (protein, listed as Capra hircus) SQGRLRFQDVAIDFTLEEWECLDLGQRELYRDVMLENYGNLASLGLIVCKPDLVTFLEKMRDPQDVRGIETTAIHPDLASF |  | 3.7637
11 | DOMAIN_9389 (protein, Marmota monax) FQESVTFRDVAIAFSQQEWQSLDSSQRDLYRDVMLENYRNLVSLGHSLSKPHVITLLEQWKDPWETGRKDKRRRCADLQLE | 3.1785 | 
12 | DOMAIN_9723 (protein, listed as Mus caroli) MEDLLSFTDVAIDFSADECECLDSAQWNLYKEVMLENYSNLVFLGLAFSKPHLVTFLEQSSDPWSVKRKASAAISLGSKPH | 2.1903 | 
13 | DOMAIN_9915 (protein, listed as Mus caroli) MEDPLSFTDVAIDFSADECECLDSAQWNLYKEVMLENYSNLVFLGLAFSKPHLVTFLEQSSDPWSVKRKASATIPLGSKPH | 3.4011 | 
14 | DOMAIN_9962 (protein, listed as Rattus norvegicus) FQDLLSFTDVAIDFSADECECLEPAQWNLYKEVMLENYSNLVFLGLAFSKPYLVTFLEQSSDPWSMKRKASAAIHLGLKPH | 2.7249 | 
15 | DOMAIN_9435 (protein, listed as Fukomys damarensis) EPWAITFADVAVYFSPEEWGCLQPTQRALYRDVMRDTYVLLSALGGGGGAKPALISWVERESELWDSDAQDPEVPKWPTEA | 3.1672 | 
16 | DOMAIN_9542 (protein, listed as Octodon degus) VTFEDVAVNFSREEWALLDPPQRKLYRDVMWETLRHLAAVDDQQSEDEFRNFQKRVRSEEVEKASQYTLWYQHGEMDSRTP | 2.6734 | 
17 | DOMAIN_11348 (protein, listed as Chlorocebus sabaeus) FQEPLKFRDVAVEFSLEEWQCLDTIQQNLYRNVMLENYRNLVFLGIAVSKPDLITCLEQEKEPWTRKRHRMVAKPVTCSHF |  | 3.3651
18 | DOMAIN_9526 (protein, listed as Mesocricetus auratus) MEELLSFPDVAIDFSAEECECLDLAQWNLYKEVMLENYSNLVFLGLSFSKPYLVTFLEQSSEPWSVKRKSAAASHPGSKPH | 2.9435 | 
19 | DOMAIN_9846 (protein, listed as Cricetulus griseus) EKQFSFQSLLTFEDVAINFSKKEWECLDTSQRDLYRFVMLENYSNLVSVGLSVSKPELVTCLEQNKEPWMVNIEESEVLEP | 2.7865 | 

Row | Molecule | Log2 (fold change) [1] | Log2 (fold change) [2]
20 | DOMAIN_10050 (protein, listed as Octodon degus) RPRALKFADVAVYFSPEEWGCLRPAQRTLYRDVMRETYGHLGALGCAGPKPALISWLERNTDDWEPAALDPQEYPRGVTVQ | 3.3147 | 
21 | DOMAIN_9776 (protein, Marmota monax) AHGSVTFRDVAMDFSQQEWECLNPFQKTLYRDVMMENYGNLVSLGHSISKPDVITLLEQGKEPWMIVKKETRKWRKDLESR | 2.6258 | 
22 | DOMAIN_9827 (protein, listed as Mus caroli) MDAVTFMDVHVNFSQEEWALLNPSQKSLYKDVMLETYWNLTCIGYEWEDHNSEECCQSSRRHGRYFNSSQYSTCKAKGYGK | 2.1904 | 
23 | DOMAIN_9643 (protein, listed as Dipodomys ordii) AVTQLTFEDVAVDFTQEEWRCLTQAQRTLYRDVMLDTYGNLVSVGVSPPSMSVILPLEFQEDPWVAKSHVTTPGELNGWEG | 3.4306 | 
24 | DOMAIN_9704 (protein, listed as Dipodomys ordii) AVTQLTFEDVAVYFTREEWRCLTPAQRTLYRDVMLDTYRNLVSVGVSPPSMSVILPLEFQEEPWVAQSHVTTLGGLNGWEG | 3.1674 | 
25 | DOMAIN_9713 (protein, listed as Cricetulus griseus) KPGAVSFADVAVYFSPEEWGCLRPAQRALYREVMRETYGLLGALGVGGAKPALISWVEEEAELWGPGAQDPEVAMCQTQAD | 3.0323 | 
26 | DOMAIN_9544 (protein, listed as Octodon degus) QGSVTFEDVAVHFSWDEWHLLDKAQRCLYRDVMAENLALITSLGLWPGVGDAEASSEQSASLKGMSQVRTFREGLSPQRAQ | 2.9143 | 
27 | DOMAIN_9787 (protein, listed as Mus caroli) FKELVVFRDVAVEFCKEEWECLGPEQRSLYRDVMLENYSNFVSLGLAISKPTIISLLEQGKEPWIVEQAGWYPDLLSENEA | 3.2962 | 
28 | DOMAIN_9424 (protein, listed as Dipodomys ordii) KPGAVSFADVAVYFSPEEWGCLRPAQRALYRDVMRETYGHLGALGLPGPKPALISWMEGESEAWNPAAQDPEEGENLGGAL | 3.771 | 
29 | DOMAIN_10577 (protein, listed as Colobus angolensis) KPGAVSFADVAVYFSPEEWGCLRPAQRALYRDVMRETYGHLGALGFPGPKPALISWMEQESEAWSPAAQDPEKGERLGGAR |  | 4.1248
30 | DOMAIN_9891 (protein, listed as Mus caroli) TQRSISFKDLAVDFTREEWQRLGPAQRLLYRDVMLENYSNLIAVGLHVSKPDVILKLEQGKEPWVVENSSRQNHAEDDEPL | 2.8116 | 
31 | DOMAIN_9503 (protein, listed as Ictidomys tridecemlineatus) VPEPVTFEDVAVDFTQEEWGQLDLVQRTLYRDVMLETYGHLLSVGNQIAKPEVISLLEQGEEPWLVEQTCPESSCPEWMRD | 2.9864 | 
32 | DOMAIN_10041 (protein, listed as Mus caroli) PITFDDVAIIFSPEEWECLDSAQRDLYRDVMVENCRNLLSVEASRHGTKGFSSKKDMKRSFQEELSRRLSKCGADIFHPRK | 2.8662 | 
33 | DOMAIN_9576 (protein, listed as Octodon degus) SQGSVSFKDVTVGFTQEEWQHLDPSQKSLYRDVMLENYSHLVSVGYCVTKPELIFRLEQGEEPWVLEEEFPRPGFLEFWKT | 2.1952 | 
34 | DOMAIN_9789 (protein, listed as Mus musculus) FQVPVTFRDVAVYFCREEWECLSPSQRTLYRNVMLENFRNLNELGCCSRRPGLITRLEQWDEPWVDDWDRSEFPDGQKSFC | 2.5801 | 
35 | DOMAIN_9822 (protein, listed as Ictidomys tridecemlineatus) EPGAVSFADVAVYFSLEEWGCLRPSQRALYRDVMRETYLHLSALGGGGTKPALISWVEEEAELWHPDAQDPEVAKCPTEAD | 2.9382 | 
36 | DOMAIN_9563 (protein, listed as Mus musculus) GCCSLETHSIRDKNAVTYGDVHVNFTQEEWALLDPSQKKLYKDVMLETYRNLNAIGFNWDDKNTEEHCPSTRRWRRFYRMQ | 3.7261 | 
37 | DOMAIN_9857 (protein, listed as Mesocricetus auratus) SKAPVTFGDLVIYFSQEEWEWLSPIQKDLYEEVMLENYHTLVSLGLVSRRPNIITLLEKGKAPWMVEPSRRRRGPESGSKR | 3.3666 | 
38 | DOMAIN_10127 (protein, listed as Peromyscus maniculatus) FQSEVMFRDVTVNFSQEEWECLNSYERDLYKDVMLENYSHLVSLGCSISKPDVITLLEQGKEPWMIVRDERRRWSQDLETR | 3.6912 | 
